From paper PMC4336329 (PLoS ONE, 2015)
The campaign covered roughly 310,000 compounds. About 14,000 (4.5%) showed an effect of 50% or more. Effects have a minus sign here. The list shows a part of the results.

These molecules were tested against human ether-à-go-go-related gene (hERG) potassium channel (human, UniProt Q12809) (assay: primary screen, population patch clamp on CHO cells stably expressing hERG).
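Also: peak tail current of the secondary pulse compared with the same well before compound.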

Chain of human ether-à-go-go-related gene (hERG) potassium channel (Q12809 whole entry, looked up): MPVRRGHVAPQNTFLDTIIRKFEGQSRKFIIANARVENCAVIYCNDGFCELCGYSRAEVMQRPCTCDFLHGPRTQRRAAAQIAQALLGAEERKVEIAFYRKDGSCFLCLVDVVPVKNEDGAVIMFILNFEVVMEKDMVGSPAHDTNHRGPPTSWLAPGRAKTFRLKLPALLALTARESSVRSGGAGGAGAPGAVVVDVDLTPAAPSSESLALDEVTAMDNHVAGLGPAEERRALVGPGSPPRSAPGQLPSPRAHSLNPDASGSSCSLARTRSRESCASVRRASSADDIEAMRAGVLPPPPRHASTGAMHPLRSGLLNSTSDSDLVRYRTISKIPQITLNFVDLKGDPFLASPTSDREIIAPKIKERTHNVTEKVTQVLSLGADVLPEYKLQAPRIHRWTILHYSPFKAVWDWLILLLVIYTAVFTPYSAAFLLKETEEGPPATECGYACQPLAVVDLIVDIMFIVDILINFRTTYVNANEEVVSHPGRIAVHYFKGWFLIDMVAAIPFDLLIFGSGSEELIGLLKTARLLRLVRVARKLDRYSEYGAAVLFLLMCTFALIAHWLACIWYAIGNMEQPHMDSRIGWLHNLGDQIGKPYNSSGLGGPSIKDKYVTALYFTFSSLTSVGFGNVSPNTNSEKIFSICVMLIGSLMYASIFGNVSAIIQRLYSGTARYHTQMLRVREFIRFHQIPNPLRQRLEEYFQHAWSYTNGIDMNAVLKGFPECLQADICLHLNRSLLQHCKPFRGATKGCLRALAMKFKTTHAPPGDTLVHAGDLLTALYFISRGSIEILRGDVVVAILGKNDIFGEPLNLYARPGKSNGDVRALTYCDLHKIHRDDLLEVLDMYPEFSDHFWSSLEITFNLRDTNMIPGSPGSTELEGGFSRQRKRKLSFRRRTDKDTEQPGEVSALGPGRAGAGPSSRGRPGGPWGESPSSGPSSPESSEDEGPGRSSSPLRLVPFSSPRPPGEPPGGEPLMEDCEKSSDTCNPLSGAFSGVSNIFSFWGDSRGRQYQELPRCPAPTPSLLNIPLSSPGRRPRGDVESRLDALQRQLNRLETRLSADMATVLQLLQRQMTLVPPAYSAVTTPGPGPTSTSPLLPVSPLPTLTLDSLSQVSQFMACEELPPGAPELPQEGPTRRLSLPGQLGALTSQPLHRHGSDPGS

| Structure (SMILES) | hERG current change (%, negative = inhibition) at 10uM [%] |
| --- | --- |
| CC(=O)NCCc1ccc(S(=O)(=O)N2CCCC2)cc1 | 5.28 |
| O=C(CSc1nnc(-c2ccccc2F)n1C1CC1)Nc1ccc2[nH]c(=O)[nH]c2c1 | 20.7 |
| CCc1nc2ccccc2c(C(=O)OCC(=O)NCCCN2CCCC2=O)c1C | 9.99 |
| COc1ccc(CNC(=O)CCCCCNc2nc(=S)[nH]c3ccccc23)cc1 | 9.93 |
| Cc1ccccc1NC(=O)N1CCN(C/C=C/c2ccccc2)CC1 | -22.7 |
| Cc1cccc2cc(CN(CCN(C)C)C(=S)NCc3ccco3)c(=O)[nH]c12 | -38.9 |
| O=C(NCCc1ccccc1)c1ccccc1NC(=O)C1CCCO1 (stereo not drawn) | 14.1 |
| Nc1ccc2nc(-c3ccc(N)c(Cl)c3)[nH]c2c1 | 10.8 |
| COc1ccc(C(=O)COC(=O)CSCc2c(C)noc2C)cc1OC | 6.04 |
| COc1ccc(CN2C(=O)CC(=O)NC2=O)cc1 | -10.2 |
| NNC(=O)c1nnn(-c2nonc2N)c1-c1cccs1 | -19.8 |
| CC(C)CCNc1nc(N2CCCC2)c2c(c1C#N)CCN(C)C2 | -58.5 |
| COc1cc(C(=S)N2CCOCC2)ccc1OS(=O)(=O)c1ccc(Cl)cc1 | -14.3 |
| Cc1ccc(/C=C2\SC(=S)N(CCC(=O)NNS(=O)(=O)c3ccc(C)cc3)C2=O)cc1 | 28.8 |
| COc1ccccc1CNC(=O)CNC(=O)N1CC(=O)Nc2ccccc21 | 16.5 |
| CCOc1cc(CNc2nn[nH]n2)ccc1OCC(=O)NC(C)(C)C | 13.2 |
| CC(=O)NC1(C(F)(F)F)NC(=O)N(CC(C)C)C1=O (stereo not drawn) | 1.53 |
| Cc1ccc(S(=O)(=O)N2CCCCC2)cc1NC(=O)C1CC(=O)N(c2ccc3c(c2)OCCO3)C1 (stereo not drawn) | -3.37 |
| CC1(CCc2ccccc2)NC(=O)N(CC(=O)Nc2ccc3c(c2)OCCO3)C1=O (stereo not drawn) | -0.56 |

| Structure (SMILES) | hERG current change (%, negative = inhibition) at 10uM [%] |
| --- | --- |
| COc1ccc(OC)c(CCNC(=O)CN2C(=O)CC(C)(C)S(=O)(=O)c3ccccc32)c1 | 3.69 |
| O=C(Nc1cccc2ncccc12)c1ccc([N+](=O)[O-])o1 | 0.646 |
| CCN(CC)S(=O)(=O)c1ccc(NC(=O)COC(=O)c2ccc(-n3nc(C)cc3C)cc2)cc1 | -7.35 |
| COc1ccc(C(=O)Oc2c(OC)cc(C(=S)N3CCOCC3)cc2OC)cc1OC | 11.3 |
| c1ccc2c(c1)NC1(CCCC1)n1c-2nc2ccccc21 | -9.46 |
| CS(=O)(=O)N(Cc1ccc(Cl)cc1)c1ccc(C(=O)N2CCN(c3ccccc3)CC2)cc1 | -20.9 |
| COCCn1c(C)cc(C(=O)CSc2nc(C)c(C)c(C)n2)c1C | 8.6 |
| Clc1ncn(C23CC4CC(CC(C4)C2)C3)n1 | 1.57 |
| COc1cccc(-n2c(COc3ccc(C)cc3)nnc2SCC(=O)O)c1 | 12.1 |
| Br.CC1CN(CC(=O)c2ccccc2Cl)CC(C)O1 (stereo not drawn) | 15.1 |
| O=c1cc(-c2ccccc2)nc2nc(-c3ccco3)[nH]n12 | 5.67 |
| Cc1cc(NCCO)nc(N2CCOCC2)n1 | 12.7 |
| CCCc1cc(-c2n[nH]c(=S)n2CC(C)C)cs1 | -0.0178 |
| O=C(O)CCC(=O)Nc1nc(-c2ccccc2)cs1 | 9.01 |
| CC(=O)c1ccc(NC(=S)NCCc2cccc(Cl)c2)cc1 | -7.63 |
| COc1ccc(S(=O)(=O)N2CCNC(=O)CC2)cc1 | 9.9 |
| Cn1cc(CNC(=O)c2ccc(OC3CCN(Cc4ccccn4)CC3)cc2)cn1 | 17.8 |
| COc1ccc2c(c1)[nH]c1c(C)nccc12.Cl | -28 |
| CCOc1ccc(CN2CCN(Cc3nc(C(C)C)cs3)CC2CCO)cc1 (stereo not drawn) | -82.2 |

| Structure (SMILES) | hERG current change (%, negative = inhibition) at 10uM [%] |
| --- | --- |
| CCCCN(C(=O)CCC(=O)Nc1cc(C)on1)C(C(=O)NC1CCCC1)c1cccc(OC)c1 (stereo not drawn) | 12 |
| Cc1csc2ncc(C(=O)Nc3cccc(C(F)(F)F)c3)c(=O)n12 | -2.52 |
| Cc1n[nH]c(=S)n1-c1cccc(Cl)c1 | 19.7 |
| O=C(C[N+]12CCC(CC1)C(C(O)(c1ccccc1)c1ccccc1)C2)c1ccc(Br)cc1.[Br-] (stereo not drawn) | -39 |
| Cc1ccc(NC(=S)NCCc2cnc[nH]2)cc1C | 7 |
| O=C(Cn1cc(C(F)(F)F)ccc1=O)N/N=C/c1ccc(F)cc1 | 4.57 |
| CCOC(=O)C1=C(C)N(Cc2ccccc2)C(=O)NC1c1ccccc1OS(=O)(=O)c1ccccc1[N+](=O)[O-] (stereo not drawn) | 9.07 |
| COC(=O)c1c(NC(NC(=O)CC(C)C)C(Cl)(Cl)Cl)sc2c1CCC2 (stereo not drawn) | 1.06 |
| CSc1nc([O-])cc(=O)n1-c1ccc(F)cc1.[K+] | 2.86 |
| CCCNc1c(NS(=O)(=O)c2ccc(C)c(C)c2)c(=O)oc2ccccc12 | -30.6 |
| CC(C)CCN1CCN(C/C=C/c2ccco2)CC1CCO (stereo not drawn) | -57.1 |
| CC(=O)O[C@H]1CC[C@@]2(C)[C@@H](CC[C@@H]3[C@@H]2CC[C@]2(C)[C@@H](C(C)(C)O)C[C@@H]32)C1 | 9.09 |
| Cc1ccc(S(=O)(=O)NNC(=O)c2snnc2C)cc1 | -2.43 |
| CC(C)Nc1ncnc2c1cnn2Cc1ccccc1Cl | 1.32 |
| CCOC(=O)c1sc2c(c1C)c(=O)n(CCO)c(=O)n2Cc1ccccc1 | 4.88 |
| Cc1cc2c(=O)oc(-c3ccc(Br)cc3)nc2s1 | 14.6 |
| O=C(CSc1nnc(SCc2ccc(Cl)cc2)s1)N/N=C/c1ccc(Cl)cc1Cl | 15.7 |
| CN(C(=O)CSc1n[nH]c(-c2cccs2)n1)C1CCS(=O)(=O)C1 (stereo not drawn) | 10.1 |
| CC1(C)Cc2c(sc3c2c(=N)n(Cc2ccco2)c(=O)n3Cc2ccc(Cl)cc2)CO1 | -8.92 |
